# In the supplement of paper PMC3334620:
# Whole data set: some 33,000 sequences, median “E-score (-0.5 to 0.5)” near -0.021, cut for the highest 2% near 0.32. The list shows a part of the results.
# Target: T1, Zap1 (UniProt P47043)
# T1 sequence: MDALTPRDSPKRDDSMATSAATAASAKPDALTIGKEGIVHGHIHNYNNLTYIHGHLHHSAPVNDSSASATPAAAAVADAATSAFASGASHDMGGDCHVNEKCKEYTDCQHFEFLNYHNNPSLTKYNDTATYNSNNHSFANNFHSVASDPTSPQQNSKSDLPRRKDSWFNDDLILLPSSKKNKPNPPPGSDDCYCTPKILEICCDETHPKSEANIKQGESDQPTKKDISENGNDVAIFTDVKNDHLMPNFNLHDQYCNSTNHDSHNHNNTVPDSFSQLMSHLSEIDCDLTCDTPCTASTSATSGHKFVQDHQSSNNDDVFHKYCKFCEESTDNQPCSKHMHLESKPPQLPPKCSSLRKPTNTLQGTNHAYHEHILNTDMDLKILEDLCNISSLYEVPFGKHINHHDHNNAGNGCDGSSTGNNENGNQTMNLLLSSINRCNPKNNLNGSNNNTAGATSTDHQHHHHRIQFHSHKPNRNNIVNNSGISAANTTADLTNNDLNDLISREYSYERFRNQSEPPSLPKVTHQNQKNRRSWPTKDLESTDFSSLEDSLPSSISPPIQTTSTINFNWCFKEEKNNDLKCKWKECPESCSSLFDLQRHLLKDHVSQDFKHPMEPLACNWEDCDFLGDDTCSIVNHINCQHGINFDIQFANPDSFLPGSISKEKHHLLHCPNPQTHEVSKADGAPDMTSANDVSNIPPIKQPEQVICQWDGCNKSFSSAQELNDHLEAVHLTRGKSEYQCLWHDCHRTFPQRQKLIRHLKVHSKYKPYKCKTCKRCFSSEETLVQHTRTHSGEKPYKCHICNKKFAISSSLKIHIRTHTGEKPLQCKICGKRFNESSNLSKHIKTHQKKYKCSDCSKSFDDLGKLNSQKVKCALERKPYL
# Assay: PBM E-score (8-mer binding enrichment) (E-score (-0.5 to 0.5)); higher = stronger / more preferred TF binding; most listed sequences are background and not binding sites
# Settings: protein concentration: 200 nM; construct: GST-full length
# Procedure, shortened: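 Yeast transcription factors, full-length or as DNA-binding domains, were expressed with a GST tag using PURExpress in vitro transcription/translation. At about 100-200 nM they were applied to universal all-10-mer Agilent arrays, double-stranded by primer extension on fresh or once-stripped slides. Fluorescent anti-GST detected bound protein, and masliner normalised the scans. E-scores for ungapped eight-base words, pooled with reverse complements, came from the Universal PBM Analysis Suite.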
row,Sequence,PBM E-score
1,GTCCTCCA,-0.0422
2,GTTTATTA,0.237
3,ATCGGAAG,-0.0371
4,TAATAGTA,0.193
5,CCTAGGAG,-0.132
6,GGGCGGAA,-0.0292
7,CCGATCAA,-0.1
8,GGATGAAC,-0.109
9,CCCTAAAA,0.163
10,GTCGGCCA,-0.156
11,ACCAAGCG,-0.158
12,CCAGACTA,-0.0968
13,CCCCCCAC,-0.446
14,TACATGTA,0.0387
15,CCAATTAG,0.199
16,ATGGGACC,0.101
17,AGTAACAC,-0.0485
18,CTCGGGAA,-0.102
19,CTAGCGCA,-0.194
20,CGCACAAG,-0.0488
21,CAGAGCTA,-0.157
22,AAAAGATT,-0.0178
23,CAATACAA,0.107
24,GGTGCCTA,-0.147
25,CACATTTC,0.111

row,Sequence,PBM E-score
1,CAGGGAGC,-0.35
2,GAGGAGAA,-0.256
3,CATAACTA,0.18
4,CTTAGCCA,-0.231
5,CGGGTACG,0.0198
6,CTCAGTGC,-0.189
7,ACCCCCCG,-0.132
8,ACTATTTC,0.0884
9,GACTAGTA,-0.224
10,GGCCAGCC,-0.142
11,CACTGTCG,-0.217
12,CGAAGGAC,-0.113
13,ACAAGCTC,-0.191
14,TTTGAAAA,0.273
15,ATTTATTA,0.104
16,AATTTGAG,0.149
17,ATCTCCAT,-0.102
18,GGACTGAC,-0.177
19,AATCAGAA,0.141
20,TGGACAAA,0.0761
21,CCACTGAC,-0.143
22,CCGTTTCG,-0.0885
23,CGCACCGA,-0.222
24,AATTCGAC,-0.00492
25,ACAGTTCG,-0.00655

row,Sequence,PBM E-score
1,CGTTGCAC,-0.0395
2,GATATCAC,0.0302
3,CTTGTGCA,0.0196
4,AGAGCGTA,-0.265
5,TACGATGA,0.0503
6,ACCCTACC,0.364
7,GCCTTAAC,0.133
8,CTCTGGGC,-0.235
9,CCTGTAGC,-0.202
10,AGGGGTAA,0.272
11,AACCGGGG,-0.00821
12,CGAGGCGC,-0.064
13,AACACCGG,0.168
14,AATGACGC,-0.0787
15,GACGCGCA,-0.141
16,CGACGCGC,0.0666
17,TATCATAA,0.14
18,CGAACCGC,0.083
19,AGTGAGCA,-0.0735
20,ATCGAGAG,-0.0136
21,CGAATTGA,-0.0748
22,GATTGCAC,0.0648
23,CTCCACCC,-0.0367
24,ACATATAG,-0.0478
25,AAGGAACT,-0.0364

row,Sequence,PBM E-score
1,TGTGAAAA,0.171
2,GATCAGGA,-0.145
3,GATAGATA,0.00177
4,AAGATGGT,0.0235
5,ACAGGACT,-0.104
6,ACGTAAAG,-0.0886
7,AGTATTGA,-0.0737
8,CCTCTGCG,-0.0894
9,AAACGACA,0.12
10,CGATTTTC,0.12
11,ACGCGTCG,-0.129
12,CGCGTGTA,-0.0358
13,CCTAGTCC,-0.128
14,TCTGTACA,0.0252
15,AGATCTGA,-0.0809
16,CTCAGCCC,-0.271
17,AAGGCGGG,-0.353
18,GTCGCTCA,-0.0832
19,ACGATGTG,0.0828
20,TCCTTCAA,-0.0972
21,TCCATCCA,-0.191
22,AGCTACGA,-0.279
23,CATTCTCC,-0.0826
24,GCGCTTCC,-0.285
25,GCTTGAAA,-0.0108

row,Sequence,PBM E-score
1,ATAACGTC,-0.0403
2,TCGCTTCA,-0.042
3,GGCAGACA,-0.171
4,GCCCCAAA,0.129
5,CTTTGTCA,0.13
6,ACCGCAAG,0.153
7,GATCATAC,0.0802
8,AGGAATGG,-0.0291
9,AGACTTCC,-0.195
10,AATACACC,0.275
11,CGACCTAG,0.0865
12,CGACTGGC,-0.264
13,ATACAAGC,0.0332
14,ACTTTATA,0.037
15,CTGTTGAC,0.00032
16,CAGGGTGG,0.283
17,ACATGTGA,0.0274
18,AGATACGC,-0.184
19,ACGTCCTC,-0.0986
20,CAAAATAA,0.231
21,ATCTGAGA,-0.109
22,CACATATC,0.11
23,GATGACCA,0.129
24,ATTCTACC,0.117
25,ATTGACTC,0.049

row,Sequence,PBM E-score
1,ATGTTCGA,0.0487
2,GTCAGGGA,-0.111
3,AGCATAAC,0.134
4,GCTCGGTA,-0.0125
5,TACGGATA,0.126
6,GCGCACAC,-0.234
7,CGCAACGC,-0.0939
8,ACAGTTTA,0.0549
9,GAGCACCC,0.0439
10,CAAGTCAC,-0.1
11,GGGGATAC,0.0806
12,CAGATTTC,-0.097
13,CCTAGAGC,-0.235
14,CACGCCTA,-0.203
15,CGGATTAC,-0.0478
16,GTTTCACA,0.162
17,CGTTGGAG,-0.103
18,GGCTTTCA,-0.00287
19,ACGTGCCC,-0.226
20,GCCGCCCA,0.018
21,GACTGCCA,-0.0641
22,AATGAAGG,0.0657
23,ACGCACAA,0.0143
24,AGTCAAAG,-0.00893
25,CCTCGATA,0.123

row,Sequence,PBM E-score
1,AGTCTGGA,-0.118
2,GCTTCCTA,-0.241
3,AACAAACG,-0.0326
4,GCGGTCCC,0.0517
5,TCTCTACA,0.158
6,TTAGGGAA,-0.12
7,CAGAGAAC,-0.0592
8,AGGCACGA,-0.07
9,ATGAAAGC,0.0514
10,AACAATGC,-0.0753
11,TCTCCACA,0.0177
12,CAGAGGCC,-0.0571
13,CACTGCGG,0.0859
14,GTATGGAC,-0.0155
15,GGATATCA,0.0363
16,GCGCACGA,-0.0144
17,AAGACCCT,0.261
18,AAGGACCC,0.248
19,GAAAATCC,-0.0374
20,ACGAGATA,-0.0859
21,CCTATTCA,0.207
22,TCTACTCA,-0.0823
